Assay results as given in the supplement of paper PMC12217912.
The other results are listed elsewhere or left out. Sequences were assembled here from the parent chain. Values near 0.05 are background.

B1: TEV protease; numbered along this chain (parent)
chain: MGESLFKGPRDYNPISSSICHLTNESDGHTTSLYGIGFGPFIITNKHLFRRNNGTLVVQSLHGVFKVKDTTTLQQHLVDGRDMIIIRMPKDFPPFPQKLKFREPQREERICLVTTNFQTKSMSSMVSDTSCTFPSGDGIFWKHWIQTKDGQCGSPLVSTRDGFIVGIHSASNFTNTNNYFTSVPKNFMELLTNQEAQQWVSGWRLNADSVLWGGHKVFMVKPEEPFQPVKEATQL

Variants of: B1
Assay: raw area under fraction-flipped curve 0-4 h after induction (AUC4h, not background-subtracted), DNA-recorder readout of cleavage of the substrate (dimensionless); higher = more cleavage of the substrate by the protease variant
Settings: temperature: 34 °C; time window: 0-4 h after rhamnose induction
Protocol: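 In vivo DNA recorder in E. coli TOP10(DE3) ΔrhaA at 34 °C. Each TEVp single-site mutant (parent TEVp 0) is paired with a single-site variant of the 7-mer TEVs (canonical ENLYFQ|S). The substrate sits between flexible linkers in a Bxb1-sfGFP-TEVs-SsrA fusion, so cleavage stabilises Bxb1 and speeds flipping of a recombination array, read by NGS. The value is the raw area under the fraction-flipped curve over 0-4 h after rhamnose induction (AUC4h), with ≥20 reads per time point. It is not background-subtracted; inactive controls average about 0.047.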
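Note: Bxb1 expression induced with 0.2% (w/v) L-rhamnose at OD600 near 0.5, cultures sampled hourly, flipped fraction per protease–substrate barcode pair counted by paired-end Illumina sequencing.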

Variant	area with substrate ENLYAQS	area with substrate ENLYEQS	area with substrate ENLYGQS	area with substrate ENLYHQS	area with substrate ENLYKQS	area with substrate ENLYLQS	area with substrate ENLYNQS	area with substrate ENLYQQS	area with substrate ENLYTQS	area with substrate ENLYVQS	area with substrate ENLYYQS	area with substrate ENLYCQS	area with substrate ENLYDQS	area with substrate ENLYIQS	area with substrate ENLYMQS	area with substrate ENLYPQS	area with substrate ENLYRQS	area with substrate ENLYSQS	area with substrate ENLYWQS
MGESLFKGPRDYNPISSSICHLTNESDGHTTSLYGIGFGPFIITNKHLFRRNNGTLVVQSLHGVFKVKDTTTLQQHLVDGRDMIIIRMPKDFPPFPQKLKFREPQREERICLVTTNFQTKSNSSMVSDTSCTFPSGDGIFWKHWIQTKDGQCGSPLVSTRDGFIVGIHSASNFTNTNNYFTSVPKNFMELLTNQEAQQWVSGWRLNADSVLWGGHKVFMVKPEEPFQPVKEATQL [M122N]	0.0756	0.0647	0.0547	0.0734	0.0571	0.0938	0.0323	0.053	0.0822	0.112	0.0803								
MGESLFKGPRDYNPISSSICHLTNESDGHTTSLYGIGFGPFIITNKHLFRRNNGTLVVQSLHGVFKVKDTTTLQQHLVDGRDMIIIRMPKDFPPFPQKLKFREPQREERICLVTTNFQTKSMSSMVSDTSCTFPSGDGIFWKHWIQTKDGQCGSPLVSTRDGFIVGIHSASNFTNTNNYFTSVPKNFMELLTNQEAQQWVSGWCLNADSVLWGGHKVFMVKPEEPFQPVKEATQL [R204C]	0.0655	0.0651	0.0682	0.069	0.0616		0.094	0.0455		0.129	0.075	0.0912	0.0608	0.142	0.0912	0.0858	0.0653	0.0776	0.0939
MGESLFKGPRDYNPISSSICHLTNESDGHTTSLYGIGFGPFIITNKHLFRRNNGTLVVQSLHGVFKVKDTTTLQQHLVDGRDMIIIRMPKDFPPFPQKLKFREPQREERICLVTTNFQTKSMSSMVSDTSCTFPSGDGIFWKHWIQTKDGQCGSPLVSTRDGFIVGIHSASNFTNTNNYFTSVPKNFMELLTNQEAQQWVSGWRLNADSVLWGGHKVFIVKPEEPFQPVKEATQL [M219I]	0.059	0.0661	0.0709	0.0644	0.0618		0.0624	0.0576					0.069	0.0904	0.0732		0.0598	0.0716	
MGESLFKGPRDYNPISSSICHLTNESDGHTTSLYGIGFGPFIITNKHLFRRNNGTLVVQSLHGVFKVKDTTTLQQHLVDGRDMIIIRMPKDFPPFPQKLKFREPQREERICLVTTNFQTKSMSSMVSDTSCTFPSGDGIFWKHWIQTKDGQCGSPLVSTRDGFIVGIHSASNFTNTNNYFTSVPKNFMELLTNQEAQQWVSGWRLNADSVLWGGHKVFMVKPEELFQPVKEATQL [P225L]	0.0615	0.0594		0.0759	0.0616		0.0724	0.0768	0.0739	0.0766			0.0879	0.0959	0.0784	0.0632			0.0671
MGESLFKGPRDYNPISSSICHLTNESDGHTTSLYGIGFGPFIITNKHLFRRNNGTLVVQSLHGVFKVKDTTTLQQHLVDGRDMIIIRMPKDFPPFPQKLKFREPQREERICLVTTNFQTKSMSSMVSDTSCTFPSGDGIFWKHWIQTKDGQCGSPLVSTRDGFIVGIHSASNFTNTNNYFTSVPKNFMELLTNTEAQQWVSGWRLNADSVLWGGHKVFMVKPEEPFQPVKEATQL [Q194T]	0.0954	0.063	0.072	0.0852	0.07		0.0729	0.0623	0.0893	0.119	0.0599	0.0844	0.0653	0.128		0.0852	0.0739		0.123
MGESLFKGPRDYNPISSSICHLTNESLGHTTSLYGIGFGPFIITNKHLFRRNNGTLVVQSLHGVFKVKDTTTLQQHLVDGRDMIIIRMPKDFPPFPQKLKFREPQREERICLVTTNFQTKSMSSMVSDTSCTFPSGDGIFWKHWIQTKDGQCGSPLVSTRDGFIVGIHSASNFTNTNNYFTSVPKNFMELLTNQEAQQWVSGWRLNADSVLWGGHKVFMVKPEEPFQPVKEATQL [D27L]	0.0628		0.0596	0.057	0.0609	0.0714	0.0707	0.0416	0.0712	0.116	0.0638	0.0797	0.062		0.0707	0.0671	0.0505	0.0772	0.0681
MGESLFKGPRDYNPISSSICHLHNESDGHTTSLYGIGFGPFIITNKHLFRRNNGTLVVQSLHGVFKVKDTTTLQQHLVDGRDMIIIRMPKDFPPFPQKLKFREPQREERICLVTTNFQTKSMSSMVSDTSCTFPSGDGIFWKHWIQTKDGQCGSPLVSTRDGFIVGIHSASNFTNTNNYFTSVPKNFMELLTNQEAQQWVSGWRLNADSVLWGGHKVFMVKPEEPFQPVKEATQL [T23H]	0.0707	0.0788	0.0723	0.0655	0.0506	0.0711	0.0691	0.0838	0.0603	0.1	0.0582	0.0903	0.0539	0.0989		0.0667	0.081		0.0764
MGESLFKGPRDYNPISSSICHLTNESDGHTTSLYGIGFGPFIITNKHLFRRNNGTLVVQSLHGVFKVKDTTTLQQHLVDGRDMIIIRMPKFFPPFPQKLKFREPQREERICLVTTNFQTKSMSSMVSDTSCTFPSGDGIFWKHWIQTKDGQCGSPLVSTRDGFIVGIHSASNFTNTNNYFTSVPKNFMELLTNQEAQQWVSGWRLNADSVLWGGHKVFMVKPEEPFQPVKEATQL [D91F]	0.0693	0.0687	0.0576	0.0675	0.048		0.0728	0.0694			0.0682	0.0801	0.0672	0.106	0.0866	0.0609		0.0502	0.0522
MGESLFKGPRDYNPISSSICHLTNESDGHTTSLYGIGFGPFIITNKHLFRRNNGTLVVQSLHGVFKVKDTTTLQQHLVDGRDMIIIRMPKDFPPFPQKLKFREPQREERICLVTTNFQTKSMSSMVSDTSCTFPGGDGIFWKHWIQTKDGQCGSPLVSTRDGFIVGIHSASNFTNTNNYFTSVPKNFMELLTNQEAQQWVSGWRLNADSVLWGGHKVFMVKPEEPFQPVKEATQL [S135G]	0.0482	0.0612	0.0686	0.0571	0.0584	0.101	0.062		0.0779	0.0879			0.0629	0.0719	0.0573	0.0555	0.0646	0.0663	0.0559
MGESLFKGPRDYNPISSSICHLTNESDGHTTSLYGIGFGPFIITNKHLFRRNNGTLVVQSLHGVFKVKDTTTLQQHLVDGRDMIIIRMPKDFPPFPQKLKFREPQREERICLVTTNFQTKSMSSMVSDTSCTFPSGDGIFWKHWIQTKDGQCGSPLVSTRDGFIVGIHSASNFTNTNNYFTSVPKNFMELLTNQEAQQWVSGWRLNADSVLWGGHKVFMVKPHEPFQPVKEATQL [E223H]	0.0644	0.069	0.0635		0.0518	0.0778	0.0649	0.0648	0.0705		0.0972				0.0824	0.0708	0.0675	0.0626	
MGESLFKGPRDYNPISSSICHLTNESDGHTTSLYGIGFGPFIITNKHLFRRNNGTLVVQSLHGVFKVKDTTTLQQHLVDGRDMIIIRMPKDFPPFPQKLKFREPQREERICLVTTNFQTKSMSSMVSDTSCTFPSGDGIFWKHWIQTKDGQCGSPLVSTRDGFIVGIHSASNFTNTNNYFTSVPKNFMMLLTNQEAQQWVSGWRLNADSVLWGGHKVFMVKPEEPFQPVKEATQL [E189M]	0.0611	0.0573	0.0598	0.0694	0.0634		0.0655	0.0643	0.0806	0.0857	0.055	0.0512	0.0875	0.131	0.0765	0.0689	0.0664	0.0728	0.0737
MGESLFKGPRDYNPISSSICHLTNESDGHTTSLYGIGFGPFIFTNKHLFRRNNGTLVVQSLHGVFKVKDTTTLQQHLVDGRDMIIIRMPKDFPPFPQKLKFREPQREERICLVTTNFQTKSMSSMVSDTSCTFPSGDGIFWKHWIQTKDGQCGSPLVSTRDGFIVGIHSASNFTNTNNYFTSVPKNFMELLTNQEAQQWVSGWRLNADSVLWGGHKVFMVKPEEPFQPVKEATQL [I43F]	0.0638	0.067	0.058	0.0635	0.0628		0.0591	0.0623	0.0731	0.0961	0.0583				0.0638	0.0656	0.0635	0.0528	0.0596
MGESLFKGPRDYNPISSSICHLTNESDGHQTSLYGIGFGPFIITNKHLFRRNNGTLVVQSLHGVFKVKDTTTLQQHLVDGRDMIIIRMPKDFPPFPQKLKFREPQREERICLVTTNFQTKSMSSMVSDTSCTFPSGDGIFWKHWIQTKDGQCGSPLVSTRDGFIVGIHSASNFTNTNNYFTSVPKNFMELLTNQEAQQWVSGWRLNADSVLWGGHKVFMVKPEEPFQPVKEATQL [T30Q]	0.0628	0.0765	0.0693	0.073	0.0616		0.0706				0.0623		0.0601	0.0676	0.086	0.0658	0.0584	0.0734	0.0936
MGESLFKGPRDYNPISSSICHLTNESDGHTTSLYGIGFGPFIITNKHLFRRNNGTLVVQSLHGVFKVCDTTTLQQHLVDGRDMIIIRMPKDFPPFPQKLKFREPQREERICLVTTNFQTKSMSSMVSDTSCTFPSGDGIFWKHWIQTKDGQCGSPLVSTRDGFIVGIHSASNFTNTNNYFTSVPKNFMELLTNQEAQQWVSGWRLNADSVLWGGHKVFMVKPEEPFQPVKEATQL [K68C]	0.0768	0.07	0.0654	0.0624	0.038		0.0784	0.0666	0.0695	0.152	0.0861		0.0518		0.0967	0.0741		0.0852	0.123
MGESLFKGPRDYNPISSSICHLTNESDGHTTSLYGIGFGPFIITNKHLFRRNNGTLVVQSLHGVFKVKDTTTSQQHLVDGRDMIIIRMPKDFPPFPQKLKFREPQREERICLVTTNFQTKSMSSMVSDTSCTFPSGDGIFWKHWIQTKDGQCGSPLVSTRDGFIVGIHSASNFTNTNNYFTSVPKNFMELLTNQEAQQWVSGWRLNADSVLWGGHKVFMVKPEEPFQPVKEATQL [L73S]	0.061	0.0799	0.0722	0.0539		0.0544	0.0725	0.0545		0.0619				0.0717	0.0582	0.05		0.0527	
MGESLFKGPRDYNPISSSICRLTNESDGHTTSLYGIGFGPFIITNKHLFRRNNGTLVVQSLHGVFKVKDTTTLQQHLVDGRDMIIIRMPKDFPPFPQKLKFREPQREERICLVTTNFQTKSMSSMVSDTSCTFPSGDGIFWKHWIQTKDGQCGSPLVSTRDGFIVGIHSASNFTNTNNYFTSVPKNFMELLTNQEAQQWVSGWRLNADSVLWGGHKVFMVKPEEPFQPVKEATQL [H21R]	0.0676	0.0655	0.0601	0.058	0.0545	0.102		0.0384	0.0828	0.0898			0.0635	0.109	0.0837	0.0719	0.066	0.071	0.0676
MGESLFKGPRDYNPISSSICHLTNESDGHTTSLYGIGFGPFIITNKHLFRRNNGTLVVQSLHGVFKVKDTTTLQQHLVDGRDMIIIRMPKDFPPFPQKLKFREPQREERICRVTTNFQTKSMSSMVSDTSCTFPSGDGIFWKHWIQTKDGQCGSPLVSTRDGFIVGIHSASNFTNTNNYFTSVPKNFMELLTNQEAQQWVSGWRLNADSVLWGGHKVFMVKPEEPFQPVKEATQL [L112R]	0.0977	0.0524	0.0695	0.0554	0.0223				0.0897	0.0674	0.0544	0.0743	0.0547	0.107	0.0829	0.0677	0.064		0.11
